Test results taken from PubChem BioAssay AID686978 (National Center for Advancing Translational Sciences (NCATS), 2013).
Among all 420,000 compounds or so, about 64,000 (15%) were called active. The inconclusive results got no clear call from the source; some entries with a clear call stand among them for comparison. Calls follow the shape of the dose curve; as a rule, active = well fitted inhibition curve with a large enough effect; inconclusive = small, poorly fitted or top-dose-only effect; inactive = flat fitted curve, though single readings scatter. No potency is given beside an inconclusive call; the fits are too rough.

Assay: qHTS for Inhibitors of human tyrosyl-DNA phosphodiesterase 1 (TDP1): qHTS in cells in absence of CPT; also: nearly all actives have a fitted effect of over 55% in size
Details: DT40 Tdp1-/- hTDP1 cells, no CPT, ATP luminescence, 48 h; activity change, negative = growth inhibition: at 46.2 µM (top of the series) unless noted
How it was run: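 Growth kinetics read by CellTiter-Glo luminescence after ≥48 hr at 37 °C. Cells: DT40 Tdp1-/- stably carrying human TDP1, 400 per well, compound exposure in the absence of CPT (DMSO vehicle).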
% is scaled to controls: 0 for no effect and ±100 for the full control effect; potency is read from the fitted curve at half-maximal effect; tags tell the direction and shape of the fitted curve.

Compound | activity change, negative = growth inhibition | Potency
Cc1c(C(=O)N2CCCCCC2)sc2ncnc(NCC3CCCO3)c12 (stereo unspecified) | inactive: -25.1% | –
COc1cc(CN2CC(=O)N(c3ccc(C)c(Cl)c3)C2=S)cc(OC)c1OC | – | active: 20.6 µM
Cc1cnc(C(=O)Nc2nnc(SCc3c(Cl)cccc3Cl)s2)cn1 | – | inconclusive [inhibitor, single point]
Cc1cc(C(=O)N2CCCC(Nc3ccc(F)cc3)C2)n(C)n1 (stereo unspecified) | inactive: 16.8% | –
CCCCN1C(=O)C(=O)N(CC(=O)Nc2sc(C)c(CC)c2C(=O)OCC)C1=O | inactive: -9.81% | –
COc1ccc(C(=O)O)cc1N1C(=O)Nc2ccccc2N1O | inactive: -23.1% | –
O=C(NCC(c1cccs1)N1CCOCC1)c1cc([N+](=O)[O-])ccc1Cl (stereo unspecified) | inactive: -23% | –
Cc1ccc(NC2=NC(c3ccccc3)n3c(nc(C)cc3=O)N2)cc1 (stereo unspecified) | inactive: -4.91% | –
CC(c1ccccn1)C(C)(O)C(C)c1ccccn1 (stereo unspecified) | – | inconclusive [inhibitor, partial curve, poor fit]
Cc1cc(C)c(C(N)=O)c(Cl)n1 | inactive: -2.24% | –
CC/C(=C\C1CCCCC1)C(NP(=O)(c1ccccc1)c1ccccc1)c1ccccc1 (stereo unspecified) | – | inconclusive [inhibitor, single point]
CCC(CO)Oc1cc(NCc2ccc(OC)cc2)c2ncn(C(C)C)c2c1 (stereo unspecified) | – | inconclusive [inhibitor, single point]
C#CCOCCOCCOCCNc1nc(N2CCN(C(=O)CCCCCCCCCCNC(=O)[C@H]([C@@H](C)CC)n3cc(CCCCCN)nn3)CC2)nc(N2CCN(C(=O)CCCCCCCCCCNC(=O)[C@H](CCCCN)n3cc(CCCC(=O)O)nn3)CC2)n1 | inactive: -26.4% | –
O=S(=O)(c1ccc(F)cc1)N1CCC(n2cnc3ccccc32)CC1 | inactive: -14.8% | –
Cc1ccc(-c2nc(-c3nccc4ccccc34)oc2-c2ccccc2)cc1 | – | active: 13 µM
c1ccc(C[C@H]2CN=C(Nc3ccccc3)N2CCCC2CCCC2)cc1 | – | active: 16.4 µM
O=C(NC(NC1CCS(=O)(=O)C1)C(=O)c1ccccc1)c1ccc(Cl)cc1 (stereo unspecified) | inactive: -8.97% | –
CCN(CC)CCNCC(=O)Nc1ccc(Oc2ccccc2)cc1 | – | inconclusive [inhibitor, single point]
Cc1ccc(NC(=O)C2CCCN(S(=O)(=O)c3cccc4cccnc34)C2)cc1Cl (stereo unspecified) | – | inconclusive [inhibitor, single point]
Cc1nn(CC(=O)Nc2ccc(C(=O)N3CCCC3)cc2)c(=O)c2ccccc12 | – | inconclusive [inhibitor, single point]
Cc1ccc(C(=O)Nc2cccc(C(=O)OCc3cc(=O)n4c5c(sc4n3)CCCC5)c2)cc1 | – | active: 18.4 µM
Cc1c(NC(=S)NC(=O)C(c2ccccc2)c2ccccc2)cccc1C(=O)O | inactive: 5.56% | –
c1ccc(-c2csc(Nc3ncccn3)n2)cc1 | – | inconclusive [inhibitor, partial curve, poor fit]
N#Cc1nc(-c2ccccc2F)oc1NCCc1ccccc1 | – | inconclusive [inhibitor, single point]
CN(Cc1ccccc1)C(=O)c1[nH]cnc1C(=O)NCC(=O)OCc1ccccc1 | inactive: -19.7% | –
Cc1[nH]ccc(=O)c1OCc1ccccc1 | inactive: -7.36% | –

Compound | activity change, negative = growth inhibition | Potency
CN(C)S(=O)(=O)c1cccc(NC(=S)N/N=C/c2ccco2)c1 | – | active: 5.8 µM
Cc1ccc(Nc2cc(C(=O)NC3CCCC3)c3ccccc3n2)cc1C | – | active: 14.6 µM
Nc1ncc(S(=O)(=O)NCc2ccccc2F)cn1 | inactive: 0.505% | –
CN1CCN(Cc2nc3c(c(=O)n(C)c(=O)n3C)n2Cc2cccc3ccccc23)CC1 | inactive: -27.1% | –
CC(C)(C)OC1NS(=O)(=O)OCC1NCOC(Cl)(Cl)Cl (stereo unspecified) | – | active: 3.66 µM
CCN1CC(CN(C)Cc2nc(-c3ccc(Cl)cc3)no2)CC1=O (stereo unspecified) | – | active: 16.4 µM
COc1ccc(NC(=O)c2cc(-c3ccccn3)nc3c(C)cc(C)cc23)c(C)c1 | – | inconclusive [inhibitor, partial curve]
CCN(Cc1ccccc1)C(c1ccccn1)c1nnnn1C(C)(C)CC (stereo unspecified) | – | inconclusive [inhibitor, single point]
C=C(C1=CCN(S(=O)C(C)(C)C)[C@@H]1CCO)c1ccccc1 (stereo partly specified) | – | active: 23.1 µM
O=C(Cc1cccc(NC(=O)C2CCCN(C(=O)c3ccccc3)C2)c1)Nc1ccc(C(=O)N2CCCCC2)cc1 (stereo unspecified) | inactive: -14.9% | –
C=CC[C@H](CC(=O)NCCO)C(=O)NCCOC(=O)[C@@H](CC=C)Cc1ccc(F)cc1 | inactive: -11.8% | –
CCCc1c(C)nc2ccc(OC)cc2c1SCCC(=O)O | – | active: 8.2 µM
COc1ccccc1N1CCN(C(=O)C2CCN(S(=O)(=O)c3cccc4nonc34)CC2)CC1 | – | inconclusive [inhibitor, single point]
O=c1c(C(c2ccc(O)cc2)c2c(O)nc3n(c2=O)CCCS3)c(O)nc2n1CCCS2 | inactive: -9% | –
Cc1nn(C)cc1CN1CCCC(C(=O)c2ccc(-c3ccccc3)cc2)C1 (stereo unspecified) | – | active: 20.6 µM
Cc1cc2c(cc1S(=O)(=O)N(C)c1ccccc1)n(C)c(=O)n2C | – | inconclusive [inhibitor, single point]
O=[N+]([O-])c1ccc(OCC(O)CNCCNc2nccc(C(F)(F)F)n2)cc1 (stereo unspecified) | – | inconclusive [inhibitor, single point]
Cc1csc(SC(C)C(=O)NC2CCCCC2C)n1 (stereo unspecified) | inactive: -17.4% | –
CC(C)COc1ccc(C(=O)NCC2OCCc3ccccc32)cc1 (stereo unspecified) | – | active: 14.6 µM
O=C(O)CCCCCN1C(=O)/C(=C\c2cn(-c3ccccc3)nc2-c2cccs2)SC1=S | inactive: -18.1% | –
COc1ccccc1OCC(=O)Nc1ccc2c(c1)OCO2 | – | inconclusive [inhibitor, partial curve]
CC(C)N(Cc1ccccc1)C(=O)COC(=O)c1ccc2c(c1)OCCO2 | – | inconclusive [inhibitor, full curve, poor fit]
O=C(c1[nH]c(C(F)(F)F)nc1-c1ccccc1)N1CCCCC1 | inactive: -4.03% | –
CCOC(=O)c1c(C)n(-c2ccccc2)c2ccc(OC(=O)c3ccccc3Cl)cc12 | – | active: 16.4 µM
Cc1cc(C)n2nc(SCC(=O)N3CCC(C)CC3)nc2n1 | inactive: 1.75% | –
CCOC(=O)C1=C(c2ccccc2)N=c2s/c(=C\c3ccco3)c(=O)n2C1c1cccs1 (stereo unspecified) | – | inconclusive [inhibitor, single point]

Compound | activity change, negative = growth inhibition | Potency
COc1cccc(N(C(=O)CCl)C(C(=O)NCCc2ccccc2)c2cccs2)c1 (stereo unspecified) | – | active: 4.61 µM
CCCCN(C)C(=O)c1sc(=O)n(Cc2c(C)cccc2C)c1C | – | inconclusive [inhibitor, single point]
COc1ccc(S(=O)(=O)NCC2CCCN(C(=O)CSC)C2)cc1 (stereo unspecified) | inactive: -0.599% | –
O=C(NCC1CCN(Cc2ccccc2F)CC1)C1CCCN(c2ncnc3c2nc2n3CCCCC2)C1 (stereo unspecified) | inactive: -6.63% | –
O=C(CSc1ncc(-c2ccc(F)cc2)[nH]1)Nc1cccc(O)c1 | – | inconclusive [inhibitor, single point]
Cc1cc(C)c(C)c(S(=O)(=O)Nc2ccccc2C(=O)NCCCN2CCOCC2)c1C | – | inconclusive [inhibitor, partial curve]
Cc1ccccc1C(=O)NCCCNC(=O)c1cnccn1 | inactive: 8.8% | –
c1ccc(CNc2ccccn2)cc1 | inactive: -28.6% | –
Cc1cccc(/C=c2\s/c(=C\C(=O)C(C)(C)C)[nH]c2=O)c1 | – | inconclusive [inhibitor, single point]
Cc1cccc(-c2c3c(=O)n(C)c(=O)n(C)c3cn2C(C)C)c1 | – | active: 20.6 µM
CCOc1ccc(CCNC(=O)C2CCCN(c3nnc(C)c4c(C)n(-c5ccccc5)nc34)C2)cc1 (stereo unspecified) | – | inconclusive [inhibitor, single point]
CCCCCCn1c(CN2CCCC(C)C2)nc2c1c(=O)n(C)c(=O)n2C (stereo unspecified) | – | inconclusive [inhibitor, single point]
CC(C)Oc1ccc(S(=O)(=O)N2CCOCC2)cc1NC(=O)c1nn(C)c(=O)c2ccccc12 | – | inconclusive [inhibitor, single point]
CC(C)C(=O)C1=Cc2cccc([N+](=O)[O-])c2OC1N1CCOCC1 (stereo unspecified) | – | inconclusive [inhibitor, single point]
O=C(NCc1ccc2c(c1)OCO2)c1ccc(CN2CCc3ccccc3C2)cc1 | – | inconclusive [inhibitor, single point]
COc1cccc(F)c1C(C[N+](=O)[O-])c1c(N)n(C)c(=O)n(C)c1=O (stereo unspecified) | – | active: 2.31 µM
Cc1ccc(Oc2cc(C)nc(-c3ccccc3O)n2)cc1 | – | inconclusive [inhibitor, partial curve]
NC(=O)c1c(NC(=O)c2noc3c2CCCC3)sc2c1CCCC2 | – | inconclusive [inhibitor, single point]
O=C(CNC(=O)c1ccco1)OCC(=O)c1ccc(Cl)cc1 | inactive: 3.61% | –
CC(C)(C)OC(=O)N1CCC[C@H]1C(=O)N/N=C/c1cccc2cccnc12 | inconclusive: -30.4% [inhibitor] | –
COC(=O)c1cc(NC(=O)CCS(=O)(=O)c2cc(Br)cc3c2N(C(=O)C2CC2)CC3)cc(C(=O)OC)c1 | inactive: -14.6% | –
CC(C)(C)OC(=O)NCc1ccc(NC(=O)c2nc[nH]c2C(=O)NCCCCCCNC(=O)c2[nH]cnc2C(=O)Nc2ccc(CNC(=O)OC(C)(C)C)cc2)cc1 | – | active: 5.8 µM
CCOc1cc2[nH]c(=O)n(CCC(=O)N3CCN(c4cccc(Cl)c4)CC3)c(=O)c2cc1OCC | – | inconclusive [inhibitor, full curve]
CCCCNC(=O)Nc1cc(C)on1 | inactive: -2.73% | –
